Laboratory results from the supplement of paper PMC10126150.
Values marked as one replicate rest on one cluster of the flow cell; about a third of the high ones do not repeat.

test system: ATP; experiment: switch fluorescence ratio, 500 uM ATP over buffer (Cy3 cluster intensity, sum of 5 cycles each) (fold (ratio)); higher = stronger signal-on switching upon ATP binding; sequences stand for … in TCGTCGGCAGCGTCAGATGTGTATAAGAGACAGTTTTTTTTTTTTTTTTTTTTTTTTT…TC; settings: aptamer strand: ATP DNA aptamer (quencher-CACCTGGGGGAGTATTGCGGAGGAAGG + anchor), 100 nM annealed; ATP concentration: 500 uM; one replicate
Summary of the method: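 Per cluster, summed Cy3 intensity from the target cycles was divided by that from the buffer cycles to give the fluorescence ratio, then averaged per switch-domain sequence. Clusters outside 100-1000 RFU were excluded. The Cy3-labelled switching-strand clusters, on a modified Illumina MiSeq flow-cell, were annealed to 100 nM quencher-labelled ATP aptamer and imaged in selection buffer, then after 15 min with 500 uM ATP at 22 °C, for five cycles with NaOH stripping and re-annealing between them.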
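Also: ATP exposure 15 min at 22 °C before imaging.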

Q: How did the switch fluorescence ratio turn out when GGATTGATAT was run?
A: 1.03

Q: For GGATTGTCTG, which switch fluorescence ratio is on record?
A: 0.992

Q: How did the switch fluorescence ratio turn out when GGCAAAGGT was run?
A: 1.17

Q: For GGCAAATAAC, which switch fluorescence ratio is on record?
A: 1.05

Q: With GGCAAATACG as the sequence, how does the switch fluorescence ratio read?
A: 1.24

Q: Which switch fluorescence ratio does the source give for GGCAAATCCG here?
A: 0.992

Q: With GGCAACCG as the sequence, how does the switch fluorescence ratio read?
A: 0.977

Q: With GGCACAATCT as the sequence, how does the switch fluorescence ratio read?
A: 0.986

Q: GGCACCGAGG was tested. Which switch fluorescence ratio did it give?
A: 1.05

Q: How did the switch fluorescence ratio turn out when GGCACCTCGC was run?
A: 1.03

Q: How did the switch fluorescence ratio turn out when GGCACTAAGG was run?
A: 1.01

Q: With GGCACTTAAT as the sequence, how does the switch fluorescence ratio read?
A: 1.05

Q: With GGCACTTGCC as the sequence, how does the switch fluorescence ratio read?
A: 0.979

Q: For GGCAGAAAGC, which switch fluorescence ratio is on record?
A: 1

Q: For GGCAGACACT, which switch fluorescence ratio is on record?
A: 1.01

Q: With GGCAGATAGC as the sequence, how does the switch fluorescence ratio read?
A: 1.08

Q: Which switch fluorescence ratio does the source give for GGCAGCGTTG here?
A: 0.965

Q: GGCAGCTA was tested. Which switch fluorescence ratio did it give?
A: 0.988

Q: For GGCAGCTGTA, which switch fluorescence ratio is on record?
A: 0.95

Q: How did the switch fluorescence ratio turn out when GGCAGGCAGT was run?
A: 0.99

Q: Which switch fluorescence ratio does the source give for GGCAGTCGG here?
A: 0.974

Q: With GGCAGTGAGA as the sequence, how does the switch fluorescence ratio read?
A: 1

Q: With GGCAGTTCTG as the sequence, how does the switch fluorescence ratio read?
A: 1.02

Q: GGCATAAAGC was tested. Which switch fluorescence ratio did it give?
A: 1.01

Q: How did the switch fluorescence ratio turn out when GGCATAGCTA was run?
A: 1.01

Q: For GGCATCCTCA, which switch fluorescence ratio is on record?
A: 1.04

Q: For GGCATCGACG, which switch fluorescence ratio is on record?
A: 0.96

Q: Which switch fluorescence ratio does the source give for GGCATGCCTG here?
A: 0.992

Q: Which switch fluorescence ratio does the source give for GGCATGTAAT here?
A: 0.99

Q: With GGCATGTTGG as the sequence, how does the switch fluorescence ratio read?
A: 1

Q: GGCATTCAAA was tested. Which switch fluorescence ratio did it give?
A: 1.01

Q: For GGCATTGTTA, which switch fluorescence ratio is on record?
A: 0.975

Q: For GGCCAACTTT, which switch fluorescence ratio is on record?
A: 0.995

Q: With GGCCAGGATT as the sequence, how does the switch fluorescence ratio read?
A: 0.995

Q: How did the switch fluorescence ratio turn out when GGCCATT was run?
A: 1.05

Q: GGCCCAGACA was tested. Which switch fluorescence ratio did it give?
A: 0.954

Q: For GGCCCAGGTT, which switch fluorescence ratio is on record?
A: 0.924

Q: How did the switch fluorescence ratio turn out when GGCCCAGTTT was run?
A: 1.02

Q: GGCCCATATA was tested. Which switch fluorescence ratio did it give?
A: 1.01

Q: With GGCCCGTGGG as the sequence, how does the switch fluorescence ratio read?
A: 0.929

Q: How did the switch fluorescence ratio turn out when GGCCCTAAGG was run?
A: 0.931

Q: For GGCCGGCCAT, which switch fluorescence ratio is on record?
A: 0.978

Q: With GGCCGGTTAG as the sequence, how does the switch fluorescence ratio read?
A: 0.984

Q: GGCCGTCGGG was tested. Which switch fluorescence ratio did it give?
A: 1.03

Q: How did the switch fluorescence ratio turn out when GGCCGTTCTT was run?
A: 1.02

Q: With GGCCTAATTT as the sequence, how does the switch fluorescence ratio read?
A: 1.04

Q: Which switch fluorescence ratio does the source give for GGCCTCAGGC here?
A: 0.985

Q: How did the switch fluorescence ratio turn out when GGCCTCGAAT was run?
A: 0.996

Q: For GGCCTGTTGC, which switch fluorescence ratio is on record?
A: 0.994

Q: GGCCTTTAAT was tested. Which switch fluorescence ratio did it give?
A: 0.968

Q: For GGCCTTTGTG, which switch fluorescence ratio is on record?
A: 0.929

Q: With GGCGAAGAGA as the sequence, how does the switch fluorescence ratio read?
A: 1.02

Q: Which switch fluorescence ratio does the source give for GGCGACGGGA here?
A: 1.04

Q: GGCGACGTTG was tested. Which switch fluorescence ratio did it give?
A: 0.987

Q: How did the switch fluorescence ratio turn out when GGCGAGGGAT was run?
A: 0.97

Q: For GGCGATACAG, which switch fluorescence ratio is on record?
A: 1.09

Q: GGCGATAGTT was tested. Which switch fluorescence ratio did it give?
A: 0.972

Q: GGCGCCCACT was tested. Which switch fluorescence ratio did it give?
A: 0.994

Q: With GGCGCCTGAA as the sequence, how does the switch fluorescence ratio read?
A: 1

Q: How did the switch fluorescence ratio turn out when GGCGCCTTTA was run?
A: 0.962

Q: How did the switch fluorescence ratio turn out when GGCGCTAAGT was run?
A: 0.981

Q: Which switch fluorescence ratio does the source give for GGCGCTGTAG here?
A: 0.977

Q: For GGCGCTTTAC, which switch fluorescence ratio is on record?
A: 3.96

Q: How did the switch fluorescence ratio turn out when GGCGGACAAT was run?
A: 0.984

Q: For GGCGGACGCT, which switch fluorescence ratio is on record?
A: 0.922

Q: For GGCGGACTCA, which switch fluorescence ratio is on record?
A: 0.974

Q: How did the switch fluorescence ratio turn out when GGCGGGCAAT was run?
A: 1.08

Q: For GGCGGGCAGT, which switch fluorescence ratio is on record?
A: 0.99

Q: Which switch fluorescence ratio does the source give for GGCGGGCGGA here?
A: 1.12

Q: For GGCGGGGGAT, which switch fluorescence ratio is on record?
A: 1.01

Q: For GGCGGTACCT, which switch fluorescence ratio is on record?
A: 0.995

Q: Which switch fluorescence ratio does the source give for GGCGGTTGCT here?
A: 1

Q: For GGCGTAACA, which switch fluorescence ratio is on record?
A: 1.02

Q: How did the switch fluorescence ratio turn out when GGCGTACCCC was run?
A: 1.04

Q: Which switch fluorescence ratio does the source give for GGCGTCCATT here?
A: 0.969

Q: Which switch fluorescence ratio does the source give for GGCGTCCCCG here?
A: 1.04

Q: For GGCGTCCGCT, which switch fluorescence ratio is on record?
A: 1.02

Q: GGCGTCTCAG was tested. Which switch fluorescence ratio did it give?
A: 1.01

Q: With GGCGTCTGGA as the sequence, how does the switch fluorescence ratio read?
A: 1.04

Q: Which switch fluorescence ratio does the source give for GGCGTGAGGG here?
A: 1.01

Q: Which switch fluorescence ratio does the source give for GGCGTGTGTC here?
A: 1.04

Q: With GGCGTTAACT as the sequence, how does the switch fluorescence ratio read?
A: 1.03

Q: With GGCGTTATAA as the sequence, how does the switch fluorescence ratio read?
A: 1.06

Q: How did the switch fluorescence ratio turn out when GGCGTTGGTT was run?
A: 1

Q: GGCTAAAAAT was tested. Which switch fluorescence ratio did it give?
A: 1.18

Q: GGCTAAAAT was tested. Which switch fluorescence ratio did it give?
A: 1.01

Q: Which switch fluorescence ratio does the source give for GGCTAACAAT here?
A: 1.01

Q: With GGCTAACCTG as the sequence, how does the switch fluorescence ratio read?
A: 1.03

Q: For GGCTACGATG, which switch fluorescence ratio is on record?
A: 1.01

Q: GGCTAGCGAT was tested. Which switch fluorescence ratio did it give?
A: 1.03

Q: With GGCTAGCTAG as the sequence, how does the switch fluorescence ratio read?
A: 1.03

Q: Which switch fluorescence ratio does the source give for GGCTCACCCT here?
A: 1.06

Q: Which switch fluorescence ratio does the source give for GGCTCAGGG here?
A: 1.01

Q: How did the switch fluorescence ratio turn out when GGCTCGATGC was run?
A: 0.971

Q: How did the switch fluorescence ratio turn out when GGCTCGTG was run?
A: 0.967

Q: For GGCTGATAGC, which switch fluorescence ratio is on record?
A: 0.977

Q: GGCTGCACCC was tested. Which switch fluorescence ratio did it give?
A: 1.03

Q: GGCTGGAACA was tested. Which switch fluorescence ratio did it give?
A: 1.02

Q: Which switch fluorescence ratio does the source give for GGCTGGCCTA here?
A: 0.949

Q: GGCTGGCTGG was tested. Which switch fluorescence ratio did it give?
A: 0.95

Q: With GGCTGGTGAT as the sequence, how does the switch fluorescence ratio read?
A: 1.02
